Source: US20190185532A1 (UNIVERSITY OF BIRMINGHAM, published 2019)

Molecular target: T1, MMRN2^FL (full-length human MMRN2 with a polyhistidine (His) tag) (human, UniProt Q9H8L6 23-949)
T1 construct: mature; Used as lysate of transfected HEK293T cells; Forms large multimers under non-reduced conditions; also called MMRN2 full-length; MMRN2 FL with His tag; not shown: C-terminal BirA and His tags of vector pHL-Avitag3
T1 sequence (looked up): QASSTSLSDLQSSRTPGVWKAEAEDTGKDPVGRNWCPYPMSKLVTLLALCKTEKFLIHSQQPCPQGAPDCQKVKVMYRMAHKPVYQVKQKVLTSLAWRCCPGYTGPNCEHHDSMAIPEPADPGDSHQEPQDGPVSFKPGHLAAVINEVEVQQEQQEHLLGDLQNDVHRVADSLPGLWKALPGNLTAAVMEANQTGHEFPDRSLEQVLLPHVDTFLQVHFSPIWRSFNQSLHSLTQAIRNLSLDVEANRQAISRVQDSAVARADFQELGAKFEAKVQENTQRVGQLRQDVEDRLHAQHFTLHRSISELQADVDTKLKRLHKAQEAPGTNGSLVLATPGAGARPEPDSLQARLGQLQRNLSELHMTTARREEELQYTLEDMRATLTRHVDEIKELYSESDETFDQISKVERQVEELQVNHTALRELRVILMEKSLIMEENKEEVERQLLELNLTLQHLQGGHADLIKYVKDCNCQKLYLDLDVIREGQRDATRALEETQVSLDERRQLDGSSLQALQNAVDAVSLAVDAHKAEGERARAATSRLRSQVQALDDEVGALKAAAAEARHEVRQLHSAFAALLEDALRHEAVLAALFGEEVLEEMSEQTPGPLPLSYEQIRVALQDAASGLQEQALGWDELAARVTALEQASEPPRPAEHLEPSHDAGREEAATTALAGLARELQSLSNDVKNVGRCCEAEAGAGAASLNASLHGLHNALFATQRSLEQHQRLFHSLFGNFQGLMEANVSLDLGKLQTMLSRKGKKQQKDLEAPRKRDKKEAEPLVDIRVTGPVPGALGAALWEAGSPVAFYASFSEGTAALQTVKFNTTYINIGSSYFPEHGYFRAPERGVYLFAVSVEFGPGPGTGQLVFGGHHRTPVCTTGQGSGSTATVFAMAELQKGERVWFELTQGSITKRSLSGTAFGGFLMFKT
Experiment: far western blot, non-reduced; HEK293T lysates of GFP-tagged proteins probed with MMRN2^FL-His lysate
Text: We previously identified MMRN2 as a binding partner of CLEC14A, one of the members of the C-type lectin domain (CTLD) group 14 family (4). To test whether any of the other CTLD group 14 family members also bind to MMRN2, we employed far western blotting using MMRN2 protein probe as a surrogate for a primary antibody in a standard western blot set up. The CTLD group 14 family members CLEC14A, CD93 and thrombomodulin were all constructed with a C-terminal green fluorescent protein (GFP) tag (FIG. 1A). Constructs were transfected into HEK293T cells and lysates were separated by SDS-PAGE under non-reducing conditions to keep disulphide bonds intact, then transferred to PVDF membranes and blotted using HEK293T lysates overexpressing full-length human MMRN2 with a polyhistidine (His) tag. MMRN2 protein binding was detected by staining with an anti-His tag antibody.
Whole cell protein lysates were made by incubating with lysis buffer (1% (v/v) NP40, 10 mM Tris pH7.5, 150 mM NaCl and 1 mM EDTA) and pelleting insoluble material. Standard protocols for western blotting were used. […] The epitope tag of each probed protein was detected with secondary antibody incubation (anti-His or anti-Fc HRP conjugate) and then tertiary anti-mouse HRP for the case of anti-His.

binding result: no binding (tested: diluted 1:50)
B1: thrombomodulin (human, C-terminal GFP tag, expressed in HEK293T) (receptor)
chain: [about 500 residues not listed]GLLIGISIASLCLVVALLALLCHLRKKQGAARAKMEYKCAAPSKEVVLQHVRTERTPQRL
notes: whole, on cells; On cells in flow cytometry; as non-reduced HEK293T lysate in far western blots; also called THBD; THBD wt; not shown: C-terminal green fluorescent protein (GFP) tag from vector pEGFP-N1
